In publication PMC9911399, “Two distinct binding modes provide the RNA-binding protein RbFox with extraordinary sequence specificity”:
Where a chain is given by its changes, count along the chain named. The list shows a part of the results.

T1: RBFOX1 RRM RbFoxmut (Fox-RRM*) (Homo sapiens, UniProt Q9NWB1 109-208, R118D;E147R;N151S;E152T)
T1 sequence: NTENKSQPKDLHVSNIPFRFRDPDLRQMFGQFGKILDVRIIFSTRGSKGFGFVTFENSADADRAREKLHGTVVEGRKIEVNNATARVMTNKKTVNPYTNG

B1: UUUAGCA (DNA:RNA)
RNA: GGGAGACCGGAAUUCAGAUUGUCCUUUAGCAUUAAAUCCCGUCGUAGCCACCA
DNA 1: CAATCTGAATTCCGGTCTCCC
DNA 2: TGGTGGCTACGACGGGATT
B2: UAUUUGG (DNA:RNA)
RNA: B1 RNA with U26A, A28U, G29U, C30G, A31G
DNA 1: CAATCTGAATTCCGGTCTCCC
DNA 2: TGGTGGCTACGACGGGATT
B3: ACGGCAG (DNA:RNA)
RNA: GGGAGACCGGAAUUCAGAUUGUCCACGGCAGUUAAAUCCCGUCGUAGCCACCA
DNA 1: CAATCTGAATTCCGGTCTCCC
DNA 2: TGGTGGCTACGACGGGATT
B4: ACCCGGC (DNA:RNA)
RNA: B3 RNA with G27C, G28C, C29G, A30G, G31C
DNA 1: CAATCTGAATTCCGGTCTCCC
DNA 2: TGGTGGCTACGACGGGATT
B5: AUAAGCU (DNA:RNA)
RNA: B1 RNA with U25A, U27A, A31U
DNA 1: CAATCTGAATTCCGGTCTCCC
DNA 2: TGGTGGCTACGACGGGATT
B6: UGCUAGC (DNA:RNA)
RNA: B1 RNA with U26G, U27C, A28U, G29A, C30G, A31C
DNA 1: CAATCTGAATTCCGGTCTCCC
DNA 2: TGGTGGCTACGACGGGATT
B7: GCUACUA (DNA:RNA)
RNA: B1 RNA with U25G, U26C, G29C, C30U
DNA 1: CAATCTGAATTCCGGTCTCCC
DNA 2: TGGTGGCTACGACGGGATT
B8: UUAAGCA (DNA:RNA)
RNA: B1 RNA with U27A
DNA 1: CAATCTGAATTCCGGTCTCCC
DNA 2: TGGTGGCTACGACGGGATT
B9: CACUACC (DNA:RNA)
RNA: B1 RNA with U25C, U26A, U27C, A28U, G29A, A31C
DNA 1: CAATCTGAATTCCGGTCTCCC
DNA 2: TGGTGGCTACGACGGGATT
B10: AGUGGUC (DNA:RNA)
RNA: B3 RNA with C26G, G27U, C29G, A30U, G31C
DNA 1: CAATCTGAATTCCGGTCTCCC
DNA 2: TGGTGGCTACGACGGGATT
B11: CAUAGCA (DNA:RNA)
RNA: B1 RNA with U25C, U26A
DNA 1: CAATCTGAATTCCGGTCTCCC
DNA 2: TGGTGGCTACGACGGGATT
B12: CAACAGC (DNA:RNA)
RNA: GGGAGACCGGAAUUCAGAUUGUCCCAACAGCUUAAAUCCCGUCGUAGCCACCA
DNA 1: CAATCTGAATTCCGGTCTCCC
DNA 2: TGGTGGCTACGACGGGATT
B13: UAACGGA (DNA:RNA)
RNA: B12 RNA with C25U, A29G, C31A
DNA 1: CAATCTGAATTCCGGTCTCCC
DNA 2: TGGTGGCTACGACGGGATT
B14: CAACGCG (DNA:RNA)
RNA: B12 RNA with A29G, G30C, C31G
DNA 1: CAATCTGAATTCCGGTCTCCC
DNA 2: TGGTGGCTACGACGGGATT
B15: AAGUAGA (DNA:RNA)
RNA: B12 RNA with C25A, A27G, C28U, C31A
DNA 1: CAATCTGAATTCCGGTCTCCC
DNA 2: TGGTGGCTACGACGGGATT
B16: AUCAGUA (DNA:RNA)
RNA: B1 RNA with U25A, U27C, C30U
DNA 1: CAATCTGAATTCCGGTCTCCC
DNA 2: TGGTGGCTACGACGGGATT
B17: GCUAGAU (DNA:RNA)
RNA: B1 RNA with U25G, U26C, C30A, A31U
DNA 1: CAATCTGAATTCCGGTCTCCC
DNA 2: TGGTGGCTACGACGGGATT
B18: CAUAGGC (DNA:RNA)
RNA: B12 RNA with A27U, C28A, A29G
DNA 1: CAATCTGAATTCCGGTCTCCC
DNA 2: TGGTGGCTACGACGGGATT
B19: UGGGUGG (DNA:RNA)
RNA: B3 RNA with A25U, C26G, C29U, A30G
DNA 1: CAATCTGAATTCCGGTCTCCC
DNA 2: TGGTGGCTACGACGGGATT
B20: GGGUAGG (DNA:RNA)
RNA: B3 RNA with A25G, C26G, G28U, C29A, A30G
DNA 1: CAATCTGAATTCCGGTCTCCC
DNA 2: TGGTGGCTACGACGGGATT
B21: GCGCGCU (DNA:RNA)
RNA: B3 RNA with A25G, G28C, C29G, A30C, G31U
DNA 1: CAATCTGAATTCCGGTCTCCC
DNA 2: TGGTGGCTACGACGGGATT
B22: UCAAGGC (DNA:RNA)
RNA: B12 RNA with C25U, A26C, C28A, A29G
DNA 1: CAATCTGAATTCCGGTCTCCC
DNA 2: TGGTGGCTACGACGGGATT
B23: CACAAUG (DNA:RNA)
RNA: B12 RNA with A27C, C28A, G30U, C31G
DNA 1: CAATCTGAATTCCGGTCTCCC
DNA 2: TGGTGGCTACGACGGGATT
B24: CGGGUUC (DNA:RNA)
RNA: B3 RNA with A25C, C26G, C29U, A30U, G31C
DNA 1: CAATCTGAATTCCGGTCTCCC
DNA 2: TGGTGGCTACGACGGGATT
B25: UACGUUU (DNA:RNA)
RNA: B3 RNA with A25U, C26A, G27C, C29U, A30U, G31U
DNA 1: CAATCTGAATTCCGGTCTCCC
DNA 2: TGGTGGCTACGACGGGATT
B26: CGGUAAC (DNA:RNA)
RNA: B12 RNA with A26G, A27G, C28U, G30A
DNA 1: CAATCTGAATTCCGGTCTCCC
DNA 2: TGGTGGCTACGACGGGATT
B27: AUGGCUA (DNA:RNA)
RNA: B3 RNA with C26U, A30U, G31A
DNA 1: CAATCTGAATTCCGGTCTCCC
DNA 2: TGGTGGCTACGACGGGATT
B28: GUUCAAG (DNA:RNA)
RNA: B3 RNA with A25G, C26U, G27U, G28C, C29A
DNA 1: CAATCTGAATTCCGGTCTCCC
DNA 2: TGGTGGCTACGACGGGATT
B29: AUUCGCC (DNA:RNA)
RNA: B1 RNA with U25A, A28C, A31C
DNA 1: CAATCTGAATTCCGGTCTCCC
DNA 2: TGGTGGCTACGACGGGATT
B30: CGUUUUA (DNA:RNA)
RNA: B1 RNA with U25C, U26G, A28U, G29U, C30U
DNA 1: CAATCTGAATTCCGGTCTCCC
DNA 2: TGGTGGCTACGACGGGATT
B31: CGGACUG (DNA:RNA)
RNA: B3 RNA with A25C, C26G, G28A, A30U
DNA 1: CAATCTGAATTCCGGTCTCCC
DNA 2: TGGTGGCTACGACGGGATT

Biological target: T1, RBFOX1 RRM RbFoxmut (Fox-RRM*)
Assay: EMSA; HiTS-Eq, 1 nM pool, 10 min; buffer printed only for the single-RNA assays: 10 mM Tris pH 7.5, 150 mM NaCl, 3.4 mM EDTA, 0.001% NP-40, 30 C
Conditions: tags: His6 N-terminal (pET28a); label: 5' 32P
Summary of the method: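 Purified RbFox RRM (wild type or mutant) was equilibrated for 10 min in 50 µL with 1 nM of a 5′-radiolabelled pool of RNA with 7 randomized nucleotides, its flanks annealed to DNA oligonucleotides, across increasing protein concentrations. Free RNA was separated by 8% native PAGE, excised, reverse-transcribed, PCR-barcoded and sequenced on an Illumina HiSeq 2500. Relative association constants came from read-count changes of each variant against the control reaction, normalised to the cognate motif.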

Binder	binding signal
B1	0.12 KA relative to UGCAUGU
B2	0.102 KA relative to UGCAUGU
B3	0.102 KA relative to UGCAUGU
B4	0.0777 KA relative to UGCAUGU
B5	0.0966 KA relative to UGCAUGU
B6	0.139 KA relative to UGCAUGU
B7	0.114 KA relative to UGCAUGU
B8	0.137 KA relative to UGCAUGU
B9	0.112 KA relative to UGCAUGU
B10	0.179 KA relative to UGCAUGU
B11	0.143 KA relative to UGCAUGU
B12	0.053 KA relative to UGCAUGU
B13	0.0546 KA relative to UGCAUGU
B14	0.118 KA relative to UGCAUGU
B15	0.132 KA relative to UGCAUGU
B16	0.14 KA relative to UGCAUGU

Binder	binding signal
B17	0.122 KA relative to UGCAUGU
B18	0.0883 KA relative to UGCAUGU
B19	0.16 KA relative to UGCAUGU
B20	0.095 KA relative to UGCAUGU
B21	0.107 KA relative to UGCAUGU
B22	0.0863 KA relative to UGCAUGU
B23	0.0509 KA relative to UGCAUGU
B24	0.169 KA relative to UGCAUGU
B25	0.106 KA relative to UGCAUGU
B26	0.0625 KA relative to UGCAUGU
B27	0.195 KA relative to UGCAUGU
B28	0.106 KA relative to UGCAUGU
B29	0.118 KA relative to UGCAUGU
B30	0.109 KA relative to UGCAUGU
B31	0.353 KA relative to UGCAUGU
